# Experimental data: the supplement of paper PMC8728848
# This is one part of the list.
# Experiments:
# Assay in all cases: glycan array binding signal (z-score within array); higher = stronger binding
# Conditions in all cases: glycan notation: IUPAC condensed, linker removed
# [1] = molecular target: Neu5Ac(a2-3)Gal(b1-4)Glc
# How it was run: (§1)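 Negative Z-scores can be read as non-binding. The Z-score is calculated within each array and then averaged across arrays of one protein sequence at different concentrations or buffers and across linkers. Arrays, 3228 in all, were curated from the Consortium for Functional Glycomics database and kept only where the protein sequence was available.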
# [2] = molecular target: Neu5Ac(a2-3)Gal(b1-4)GlcNAc
# How it was run: as §1
# [3] = molecular target: Neu5Ac(a2-3)Gal(b1-4)GlcNAc(b1-2)Man
# How it was run: as §1
# [4] = molecular target: Neu5Ac(a2-3)Gal(b1-4)GlcNAc(b1-2)Man(a1-3)[GlcNAc(b1-2)Man(b1-4)GlcNAc(b1-2)Man(a1-6)]Man(b1-4)GlcNAc(b1-4)GlcNAc
# How it was run: as §1
# [5] = molecular target: Neu5Ac(a2-3)Gal(b1-4)GlcNAc(b1-2)Man(a1-3)[GlcNAc(b1-4)][Neu5Ac(a2-3)Gal(b1-4)GlcNAc(b1-2)Man(a1-6)]Man(b1-4)GlcNAc(b1-4)GlcNAc
# How it was run: as §1
# [6] = molecular target: Neu5Ac(a2-3)Gal(b1-4)GlcNAc(b1-2)Man(a1-3)[Neu5Ac(a2-3)Gal(b1-4)GlcNAc(b1-2)Man(a1-6)]Man(b1-4)GlcNAc(b1-4)GlcNAc
# How it was run: as §1
# [7] = molecular target: Neu5Ac(a2-3)Gal(b1-4)GlcNAc(b1-2)Man(a1-3)[Neu5Ac(a2-3)Gal(b1-4)GlcNAc(b1-2)Man(a1-6)]Man(b1-4)GlcNAc(b1-4)[Fuc(a1-6)]GlcNAc
# How it was run: as §1
# [8] = molecular target: Neu5Ac(a2-3)Gal(b1-4)GlcNAc(b1-2)Man(a1-3)[Neu5Ac(a2-6)Gal(b1-4)GlcNAc(b1-2)Man(a1-6)]Man(b1-4)GlcNAc(b1-4)GlcNAc
# How it was run: as §1
# [9] = molecular target: Neu5Ac(a2-3)Gal(b1-4)GlcNAc(b1-2)[Neu5Ac(a2-3)Gal(b1-4)GlcNAc(b1-4)]Man(a1-3)[GlcNAc(b1-4)][Neu5Ac(a2-3)Gal(b1-4)GlcNAc(b1-2)[Neu5Ac(a2-3)Gal(b1-4)GlcNAc(b1-6)]Man(a1-6)]Man(b1-4)GlcNAc(b1-4)GlcNAc
# How it was run: as §1
# [10] = molecular target: Neu5Ac(a2-3)Gal(b1-4)GlcNAc(b1-2)[Neu5Ac(a2-3)Gal(b1-4)GlcNAc(b1-4)]Man(a1-3)[GlcNAc(b1-4)][Neu5Ac(a2-3)Gal(b1-4)GlcNAc(b1-4)Man(a1-6)]Man(b1-4)GlcNAc(b1-4)GlcNAc
# How it was run: as §1
# [11] = molecular target: Neu5Ac(a2-3)Gal(b1-4)GlcNAc(b1-2)[Neu5Ac(a2-3)Gal(b1-4)GlcNAc(b1-6)]Man(a1-6)[Neu5Ac(a2-3)Gal(b1-4)GlcNAc(b1-2)Man(a1-3)]Man(b1-4)GlcNAc(b1-4)GlcNAc
# How it was run: as §1
# [12] = molecular target: Neu5Ac(a2-3)Gal(b1-4)GlcNAc(b1-2)[Neu5Ac(a2-3)Gal(b1-4)GlcNAc(b1-6)]Man(a1-6)[Neu5Ac(a2-3)Gal(b1-4)GlcNAc(b1-2)Man(a1-3)][GlcNAc(b1-4)]Man(b1-4)GlcNAc(b1-4)GlcNAc
# How it was run: as §1
# [13] = molecular target: Neu5Ac(a2-3)Gal(b1-4)GlcNAc(b1-3)Gal
# How it was run: as §1
# [14] = molecular target: Neu5Ac(a2-3)Gal(b1-4)GlcNAc(b1-3)Gal(b1-3)GlcNAc
# How it was run: as §1
# [15] = molecular target: Neu5Ac(a2-3)Gal(b1-4)GlcNAc(b1-3)Gal(b1-4)GlcNAc
# How it was run: as §1
# [16] = molecular target: Neu5Ac(a2-3)Gal(b1-4)GlcNAc(b1-3)Gal(b1-4)GlcNAc(b1-2)Man(a1-3)[Neu5Ac(a2-3)Gal(b1-4)GlcNAc(b1-3)Gal(b1-4)GlcNAc(b1-2)Man(a1-6)]Man(b1-4)GlcNAc(b1-4)GlcNAc
# How it was run: as §1
# [17] = molecular target: Neu5Ac(a2-3)Gal(b1-4)GlcNAc(b1-3)Gal(b1-4)GlcNAc(b1-3)Gal(b1-4)GlcNAc
# How it was run: as §1
# [18] = molecular target: Neu5Ac(a2-3)Gal(b1-4)GlcNAc(b1-3)Gal(b1-4)GlcNAc(b1-3)Gal(b1-4)GlcNAc(b1-2)Man(a1-3)[Neu5Ac(a2-3)Gal(b1-4)GlcNAc(b1-3)Gal(b1-4)GlcNAc(b1-3)Gal(b1-4)GlcNAc(b1-2)Man(a1-6)]GalNAc
# How it was run: as §1
# [19] = molecular target: Neu5Ac(a2-3)Gal(b1-4)GlcNAc(b1-3)Gal(b1-4)GlcNAc(b1-3)GalNAc
# How it was run: as §1
# [20] = molecular target: Neu5Ac(a2-3)Gal(b1-4)GlcNAc(b1-3)Gal(b1-4)GlcNAc(b1-3)[Neu5Ac(a2-3)Gal(b1-4)GlcNAc(b1-3)Gal(b1-4)GlcNAc(b1-6)]GalNAc
# How it was run: as §1
# [21] = molecular target: Neu5Ac(a2-3)Gal(b1-4)GlcNAc(b1-3)Gal(b1-4)GlcNAc(b1-6)[Gal(b1-3)]GalNAc
# How it was run: as §1
# [22] = molecular target: Neu5Ac(a2-3)Gal(b1-4)GlcNAc(b1-3)Gal(b1-4)[Fuc(a1-3)]GlcNAc
# How it was run: as §1
# [23] = molecular target: Neu5Ac(a2-3)Gal(b1-4)GlcNAc(b1-3)GalNAc
# How it was run: as §1
# [24] = molecular target: Neu5Ac(a2-3)Gal(b1-4)GlcNAc(b1-3)[Neu5Ac(a2-3)Gal(b1-4)GlcNAc(b1-6)]GalNAc
# How it was run: as §1
# [25] = molecular target: Neu5Ac(a2-3)Gal(b1-4)GlcNAc(b1-6)GalNAc
# How it was run: as §1
# [26] = molecular target: Neu5Ac(a2-3)Gal(b1-4)GlcNAc(b1-6)[Gal(b1-3)]GalNAc
# How it was run: as §1
# [27] = molecular target: Neu5Ac(a2-3)Gal(b1-4)GlcNAc(b1-6)[Neu5Ac(a2-3)Gal(b1-3)]GalNAc
# How it was run: as §1
# [28] = molecular target: Neu5Ac(a2-3)Gal(b1-4)GlcNAc6S
# How it was run: as §1
# [29] = molecular target: Neu5Ac(a2-3)Gal(b1-4)[Fuc(a1-3)]GlcNAc
# How it was run: as §1
# [30] = molecular target: Neu5Ac(a2-3)Gal(b1-4)[Fuc(a1-3)]GlcNAc(b1-2)Man
# How it was run: as §1
# [31] = molecular target: Neu5Ac(a2-3)Gal(b1-4)[Fuc(a1-3)]GlcNAc(b1-3)Gal
# How it was run: as §1
# [32] = molecular target: Neu5Ac(a2-3)Gal(b1-4)[Fuc(a1-3)]GlcNAc(b1-3)Gal(b1-4)GlcNAc
# How it was run: as §1
# [33] = molecular target: Neu5Ac(a2-3)Gal(b1-4)[Fuc(a1-3)]GlcNAc(b1-3)Gal(b1-4)[Fuc(a1-3)]GlcNAc(b1-3)Gal(b1-4)[Fuc(a1-3)]GlcNAc
# How it was run: as §1
# [34] = molecular target: Neu5Ac(a2-3)Gal(b1-4)[Fuc(a1-3)]GlcNAc(b1-3)GalNAc
# How it was run: as §1
# [35] = molecular target: Neu5Ac(a2-3)Gal(b1-4)[Fuc(a1-3)]GlcNAc(b1-6)[Gal(b1-3)]GalNAc
# How it was run: as §1
# [36] = molecular target: Neu5Ac(a2-3)Gal(b1-4)[Fuc(a1-3)]GlcNAc(b1-6)[Neu5Ac(a2-3)Gal(b1-3)]GalNAc
# How it was run: as §1
# [37] = molecular target: Neu5Ac(a2-3)Gal(b1-4)[Fuc(a1-3)]GlcNAc6S
# How it was run: as §1
# [38] = molecular target: Neu5Ac(a2-3)Gal6S(b1-4)GlcNAc
# How it was run: as §1
binder,measurement,setting,value
"Gal 4 (Mus musculus), P56470 (protein) MAYVPAPGYQPTYNPTLPYYQPIPGGLNVGMSVYIQGVASEHMKRFFVNFVVGQDPGSDVAFHFNPRFDGWDKVVFNTLQGGKWGSEERKRSMPFKKGAAFELVFIVLAEHYKVVVNGNPFYEYGHRLPLQMVTHLQVDGDLQLQSINFIGGQPLRPQGPPMMPPYPGPGHCHQQLNSLPTMEGPPTFNPPVPYFGRLQGGLTARRTIIIKGYVPPTGKSFAINFKVGSSGDIALHINPRMGNGTVVRNSLLNGSWGSEEKKITHNPFGPGQFFDLSIRCGLDRFKVYANGQHLFDFAHRLSAFQRVDTLEIQGDVTLSYVQI",glycan array binding signal (z-score),[1],-0.227
same,glycan array binding signal (z-score),[2],-0.238
same,glycan array binding signal (z-score),[3],-0.301
same,glycan array binding signal (z-score),[4],-0.192
same,glycan array binding signal (z-score),[5],-0.276
same,glycan array binding signal (z-score),[6],-0.302
same,glycan array binding signal (z-score),[7],-0.301
same,glycan array binding signal (z-score),[8],-0.228
same,glycan array binding signal (z-score),[9],-0.34
same,glycan array binding signal (z-score),[10],-0.277
same,glycan array binding signal (z-score),[11],-0.196
same,glycan array binding signal (z-score),[12],-0.338
same,glycan array binding signal (z-score),[13],-0.249
same,glycan array binding signal (z-score),[14],-0.231
same,glycan array binding signal (z-score),[15],-0.249
same,glycan array binding signal (z-score),[16],-0.271
same,glycan array binding signal (z-score),[17],-0.231
same,glycan array binding signal (z-score),[18],-0.219
same,glycan array binding signal (z-score),[19],-0.309
same,glycan array binding signal (z-score),[20],-0.262
same,glycan array binding signal (z-score),[21],-0.31
same,glycan array binding signal (z-score),[22],-0.232
same,glycan array binding signal (z-score),[23],-0.249
same,glycan array binding signal (z-score),[24],-0.261
same,glycan array binding signal (z-score),[25],-0.314
same,glycan array binding signal (z-score),[26],-0.228
same,glycan array binding signal (z-score),[27],-0.233
same,glycan array binding signal (z-score),[28],-0.234
same,glycan array binding signal (z-score),[29],-0.235
same,glycan array binding signal (z-score),[30],-0.297
same,glycan array binding signal (z-score),[31],-0.242
same,glycan array binding signal (z-score),[32],-0.188
same,glycan array binding signal (z-score),[33],-0.237
same,glycan array binding signal (z-score),[34],-0.131
same,glycan array binding signal (z-score),[35],-0.204
same,glycan array binding signal (z-score),[36],-0.185
same,glycan array binding signal (z-score),[37],-0.226
same,glycan array binding signal (z-score),[38],-0.224
